# Measured values as given in PubChem BioAssay AID445 (National Center for Advancing Translational Sciences (NCATS), 2006).
# Hit rate of the full screen: of about 110,000 compounds, about 40 (0.04%) were called active. The inconclusive results got no clear call from the source; some entries with a clear call stand among them for comparison. Calls come from the whole dose curve; as a rule, active = well fitted curve in the direction sought with a large enough effect in the signal ratio (not every such curve was filed as active); inconclusive = small, poorly fitted or top-dose-only effect, or a change in a side signal; inactive = flat fitted curve, though single readings scatter; the % refers to the signal ratio. Potencies of inconclusive entries are doubtful fits and often do not repeat.
# Experiment: IkB Signaling;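 for IkBa stabilization activation: 0% = basal untreated cells and 100% = reference inhibitor full response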
# Settings: ABC-DLBCL IkBa-CBG/CBR dual luciferase ratio (green luciferase fused to IkBa over red control in OCI-Ly3 lymphoma cells), 4 h; IkBa stabilization activation: at 57.1 µM (top of the series), scaled: untreated 0%, proteasome inhibitor 100% unless noted
# Method in brief: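 In this assay, an IκBα–CBG68 fusion accumulates when IKK-driven degradation is blocked; native CBR normalizes for cell number. OCI-Ly3 cells were treated 4 h with compound and doxycycline, then green and red light read after Chroma-Glo addition.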
# Potency is the fitted concentration of half-maximal effect.
SMILES,IkBa stabilization activation,Potency
COc1ccc(NC(=O)c2csnn2)cc1Cl,inactive: -0.238%,
[O-]/[N+](=N\O)c1ccccc1,inactive: -1.27%,
CCOC(=O)C1=C(C)N=C2SC(CC)C(=O)N2C1c1ccc(OC(C)=O)c(OCC)c1 (stereo not given),inactive: -0.312%,
Cc1ccc(-c2nnc3n2N=C(c2ccccc2Br)CS3)cc1,inconclusive: 0.391% [signal inhibitor],
COc1ccc(CCNc2nc(C)nc3c2oc2ccccc23)cc1OC,inconclusive: -10.7% [signal inhibitor],
Cc1ccc(CN2CCCn3nc(C(=O)NCc4ccc(N(C)C)cc4)cc3C2=O)cc1,inconclusive: 0.459% [signal inhibitor],
Cc1ccc(N=Cc2ccc(O)cc2O)cc1F,,"inconclusive: 12.6 µM [rising, partial curve]"
COc1cc(NC(=O)c2ccco2)c(OC)cc1NC(=O)CCC(=O)Nc1cccc(C)c1C,inactive: 0.863%,
CC1CCN(c2nc(-c3ccc(C(C)(C)C)cc3)nc3ccccc23)CC1,inactive: -1.26%,
CCOc1ccc(NCc2nnc(SCC(=O)Nc3cc(C)on3)n2-c2ccccc2OC)cc1,,"inconclusive: 0.501 µM [signal inhibitor, full curve]"
COc1ccc(-c2cnn(-c3ccccc3)c2N)cc1OC,,"inconclusive: 15.8 µM [signal inhibitor, partial curve]"
O=C(O)CCCC(=O)Nc1ccc(N2CCCC2)cc1,inconclusive: 7.08% [signal inhibitor],
CC(C)CNC(=O)Nc1cc(C(=O)NCc2ccc(C(C)C)cc2)ccc1N1CCCC1,inconclusive: -0.151% [signal inhibitor],
N#CC1=C(N)Oc2n[nH]c(-c3ccc(F)cc3)c2C1c1cccnc1 (stereo not given),inactive: 0.198%,
CCOC(=O)c1sc2ncn(CC(=O)Nc3cc(Cl)ccc3C)c(=O)c2c1C,inconclusive: 4.07% [signal inhibitor],
COc1cccc(NC(=O)C2CCN(c3ncccn3)CC2)c1,inconclusive: 2.41% [signal inhibitor],
CC(=O)c1ccc(N2CCN(C(=O)c3cc(S(=O)(=O)N4CCCCCC4)cn3C)CC2)cc1,inconclusive: -0.247% [signal inhibitor],
CC(=O)Nc1cccc(NC(=O)CSc2nccn2Cc2ccc3c(c2)OCO3)c1,inconclusive: 0.0296% [signal inhibitor],
COc1cc(NC(=O)CN(c2ccc(C)cc2)S(=O)(=O)c2c(C)n[nH]c2C)cc(OC)c1,inconclusive: 3.31% [signal inhibitor],
CCOc1ccc(-c2nc(CSCC(=O)N3CCN(C(=O)c4ccco4)CC3)c(C)o2)cc1,inconclusive: 8.95% [signal inhibitor],
COCC(=O)N1CCC2(CC1)CCN(c1ncccn1)CC2,"inactive: 0.124% [at 11.4 µM, scaled: untreated 0%, proteasome inhibitor 100%]",
O=C(OCc1cc(=O)n2nc(-c3cccs3)sc2n1)c1cccc(F)c1,inactive: -0.0114%,
CC(C)CCN(C(=O)Nc1ccc(Cl)c(Cl)c1)C1CCN(C(C)C)CC1,inconclusive: -0.0402% [signal inhibitor],
O=C(c1noc2c1CCCCC2)N1CCN(c2cccc(Cl)c2)CC1,inconclusive: 3.74% [signal inhibitor],

SMILES,IkBa stabilization activation,Potency
Cc1ccc(NC(=O)N2CC3CCCN3c3ccccc32)cc1Cl (stereo not given),inconclusive: 0.327% [signal inhibitor],
O=C(Cn1ncc2c3ccccc3n(Cc3ccccc3F)c2c1=O)N1CCCCCC1,inconclusive: 1.5% [signal inhibitor],
O=C(COc1ccc(Cl)cc1)Nc1nc(-c2cccs2)cs1,inconclusive: 16.2%,
CCCCC(=O)Nc1cc2nn(-c3ccc(OC)cc3)nc2cc1C,inactive: -3.41%,
Cc1ccccc1OC(=O)c1cc(-c2ccc3c(c2)OCCO3)on1,inactive: 2.04%,
COC(=O)c1c(C)n(-c2ccccc2)c2ccc(O)cc12,inconclusive: 4.23% [signal inhibitor],
Cc1ccc(C)c(NC(=O)Cc2coc3cc(C)cc(C)c23)c1,inactive: 0.341%,
CCc1ccccc1NC(=O)Cn1nnc2sc3c(c2c1=O)CCC(C(C)(C)C)C3 (stereo not given),inconclusive: -1.13% [signal inhibitor],
O=C(c1cc2ccc3cccnc3c2[nH]1)N1CCCCC1,,"inconclusive: 15.8 µM [signal inhibitor, partial curve]"
CC(C)CC(NC(=O)C1CCC(C)CC1)C(=O)N1CCN(c2ccccn2)CC1 (stereo not given),inactive: 2.95%,
CCN1CCSc2ccc(C(=O)NCc3ccc(F)cc3)cc21,inconclusive: 0.00328% [signal inhibitor],
CCCCNC(=O)c1cc(-c2cccnc2)nc2ccc(S(=O)(=O)NCCCC)cc12,inactive: 0.622%,
Cc1ccc(CNC(=O)CCSCc2cnn(-c3ccccc3)c2-n2cccc2)cc1,inconclusive: 0.798% [signal inhibitor],
CCOC(=O)c1sc(Nc2nc3c(OC)cccc3s2)nc1C,inactive: 5.64%,
CC(C)c1ccc(OCC(=O)Nc2cc(-c3ccccc3)no2)cc1,inconclusive: 8.64% [signal inhibitor],
COc1ccc(-n2c(NC(=O)c3ccco3)c(C#N)c3nc4ccccc4nc32)cc1,inactive: -3.17%,
COc1cc(CN(C(=O)c2ccccc2Br)c2ccccn2)cc(OC)c1OC,inconclusive: 2.57% [signal inhibitor],
CC(=O)Nc1ccc(S(=O)(=O)N2CCN(c3nc(NC4CCCC4)c4ccccc4n3)CC2)cc1,inconclusive: -1.24% [signal inhibitor],
Cc1ccc(C)c(N2CCN(C(=O)CCS(=O)(=O)c3ccc4c(c3)oc(=O)n4C)CC2)c1,inconclusive: -1.65% [signal inhibitor],
Cc1ccc(NC(=O)CN2C(=O)C(c3ccc(C)cc3)=NC23CCCCCC3)cc1,inconclusive: 0.823% [signal inhibitor],
CCc1ccc(NC(=O)c2cccc(N3CCCS3(=O)=O)c2)cc1,inconclusive: 0.955% [signal inhibitor],
COc1ccc2c(c1)c(=O)c(S(=O)(=O)c1ccc(Cl)cc1)cn2Cc1cc(C)ccc1C,inconclusive: 1.42% [signal inhibitor],
CCOC(=O)c1ccc(N)cc1,"inactive: -0.0631% [at 25.6 µM, scaled: untreated 0%, proteasome inhibitor 100%]",
CC1(C)CC(=O)CC(=Nc2ccc3[nH]c(=O)[nH]c3c2)C1,inactive: 3.37%,

SMILES,IkBa stabilization activation,Potency
CCN(CC)C(=O)c1sc2c(c1C)c(=O)n(CCc1ccccc1)c(=O)n2Cc1ccc(C)cc1,inactive: 1.15%,
CCn1ccc2c(OCC(=O)Nc3ccc(C)c(Cl)c3)cccc2c1=O,inconclusive: 7.7% [signal inhibitor],
COc1cccc(N2CCN(C(=O)CCSCc3ccccc3F)CC2)c1,inconclusive: 1.57% [signal inhibitor],
Cc1cccc(C(=O)Nc2c(C(=O)N3CCN(c4ccc(F)cc4)CC3)oc3ccccc23)c1,inconclusive: 0.5% [signal inhibitor],
CCc1ccc2[nH]c(=O)c(CN(Cc3ccccc3OC)Cc3nnnn3Cc3ccco3)cc2c1,inconclusive: 3.01% [signal inhibitor],
O=C(Cc1ccc(Cl)cc1)NCC(c1cccs1)S(=O)(=O)c1ccccc1 (stereo not given),inconclusive: 1.22% [signal inhibitor],
COc1ccc(CC(=O)Nc2ccc(-c3nnc(-c4ccccc4)o3)cc2)cc1OC,,"inconclusive: 0.00794 µM [signal inhibitor, full curve]"
Cc1ccc(C)c(NC(=O)CSc2nnc3[nH]c(=O)cc(-c4ccccc4)n23)c1,inconclusive: 3.33% [signal inhibitor],
COc1cc(C(=O)NC(c2ccccc2Cl)c2cc(Cl)c3cccnc3c2O)cc(OC)c1OC (stereo not given),inactive: 4.4%,
CCOc1ccc(NC(=O)Cn2c(=O)n(CC3CCC(C(=O)NCCc4ccccc4)CC3)c(=O)c3ccccc32)cc1 (stereo not given),inconclusive: 2.52% [signal inhibitor],
COc1ccc(NC(=O)CSc2oc(-c3ccco3)nc2S(=O)(=O)c2ccc(C)cc2)c(OC)c1,inconclusive: -1.05% [signal inhibitor],
COc1ccccc1C(=O)Nc1cccc(C(=O)OCc2cc(=O)n3c4c(sc3n2)CCCC4)c1,inconclusive: 9.74% [signal inhibitor],
Cc1c(CNC(C)CCc2ccccc2)c(C(=O)O)c(C)n1Cc1ccc(F)cc1 (stereo not given),inconclusive: 0.0102% [signal inhibitor],
CCOC(=O)c1ccccc1NC(=O)NCc1c(-n2cccc2)sc2c1CCCC2,inactive: 0.0553%,
Cc1csc2nc(COC(=O)c3cccc(NC(=O)COc4ccccc4Cl)c3)cc(=O)n12,,"inconclusive: 12.6 µM [signal inhibitor, partial curve]"
CCCC(=O)c1ccc(N2CCN(C(=O)c3ccccc3Br)CC2)c(F)c1,inconclusive: 4.78% [signal inhibitor],
COc1ccc(CNC(=O)CC2N=C3c4ccccc4N=C(SCC(=O)Nc4ccc(C(C)C)cc4)N3C2=O)cc1 (stereo not given),inconclusive: -2.35% [signal inhibitor],
COC(=O)CCCn1c(-c2ccc(C)cc2)c(C)n2c3c(=O)n(C)c(=O)n(C)c3nc12,inconclusive: -0.732% [signal inhibitor],
COc1ccc(-c2cn3c(n2)sc2cc(C(=O)NC(C)C45CC6CC(CC(C6)C4)C5)ccc23)cc1 (stereo not given),inconclusive: 1.69% [signal inhibitor],
C=C[C@@]1(C)CC(=O)[C@@]2(O)[C@@]3(C)[C@H](O)CCC(C)(C)[C@@H]3[C@H](O)[C@H](OC(C)=O)[C@]2(C)O1,inactive: 2.42%,
COCc1cc(C)nc2sc3c(c12)NC(c1ccccc1C(=O)O)N(c1cccc(C(F)(F)F)c1)C3=O (stereo not given),inactive: 2.78%,
Cc1ccn2c(Nc3ccccc3C)c(-c3ccncc3)nc2c1,inconclusive: -5.92% [signal inhibitor],
